In PubChem BioAssay AID2675 (National Center for Advancing Translational Sciences (NCATS), 2010):
Screen size: about 280,000 compounds; about 100 (0.036%) were called active. The inconclusive results got no clear call from the source; some entries with a clear call stand among them for comparison. Calls follow the shape of the dose curve; as a rule, active = well fitted inhibition curve with a large enough effect in the signal ratio, with a control signal flat (not every such curve was filed as active); inconclusive = small, poorly fitted or top-dose-only effect, or effect the other way, or a change in a side signal; inactive = no such curve, though single readings can be large or run the other way; the % refers to the signal ratio. Potencies of inconclusive entries are doubtful fits and often do not repeat. A note “side channel” means that the fit belongs to a control or component signal, not to the main read-out.
% is scaled to controls: 0 for no effect and ±100 for the full control effect; potency is read from the fitted curve at half-maximal effect; tags tell the direction and shape of the fitted curve or compound fluorescence and quenching.

What follows are compounds tested against Muscleblind-like protein 1 (Homo sapiens) (UniProt Q9NR56) (assay: qHTS Assay for Inhibitors of MBNL1-poly(CUG) RNA binding). Settings: TR-FRET MBNL1-His/biotin-(CUG)12 binding, 665/545 ratio; activity change, negative = inhibition: at 57.5 µM (top of the series).
UniProt Q9NR56, sequence (Q9NR56 whole entry, looked up): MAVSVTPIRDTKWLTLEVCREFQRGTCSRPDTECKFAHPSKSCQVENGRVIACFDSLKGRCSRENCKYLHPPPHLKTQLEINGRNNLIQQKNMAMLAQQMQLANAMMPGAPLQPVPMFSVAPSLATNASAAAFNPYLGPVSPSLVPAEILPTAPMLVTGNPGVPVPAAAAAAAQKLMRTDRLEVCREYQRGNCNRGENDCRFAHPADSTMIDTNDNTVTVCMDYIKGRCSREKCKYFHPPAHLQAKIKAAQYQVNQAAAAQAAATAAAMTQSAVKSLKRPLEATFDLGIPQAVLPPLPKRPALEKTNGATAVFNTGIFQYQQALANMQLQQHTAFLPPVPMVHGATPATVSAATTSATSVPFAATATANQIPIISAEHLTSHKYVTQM
In short: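 Compound titration spanned 92 nM–58 uM against the MBNL1-His/biotin-(CUG)12 complex. After 60 min at room temperature with 5 nM streptavidin-XL665 and 0.055 ng/ul terbium anti-His, ratiometric 665/545 nm emission (Ex 340 nm) normalized to controls.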
In the case of `CC(=O)N1CCN=C1SCc1c(F)cccc1Cl`, the Potency is reported as inconclusive: 39.8 µM [quencher, side channel, partial curve, poor fit].
For `Cc1cccc(NC(=O)c2cc(=O)c3ccccc3o2)c1`, the Potency was inconclusive: 17.8 µM [quencher, side channel, partial curve].
`O=C(NCCCc1ccccc1)c1ccccc1O` was tested, and the “activity change, negative = inhibition” value was inactive: -3.85%.
With `Cc1cc2ccccc2n1CCNC(=O)c1ccc(Br)o1` the “activity change, negative = inhibition” value was inactive: 10.6%.
For `O=c1nc(-c2ccccc2)c2ccccc2[nH]1`, the Potency was inconclusive: 12.6 µM [quencher, side channel, partial curve].
In the case of `Fc1ccc(NC(=S)Nc2cccc3ccccc23)cc1F`, the Potency is reported as inconclusive: 35.5 µM [quencher, side channel, single point].
For `CCC(=O)N1c2ccccc2-c2nnc(SC)nc2OC1c1ccc(OC)c(OC)c1` (centres undefined), the Potency was inconclusive: 12.6 µM [quencher, side channel, partial curve].
In the case of `CCC(=O)Nc1c(C)ccc2nsnc12`, the Potency is reported as inconclusive: 31.6 µM [quencher, side channel, single point].
For `O=[N+]([O-])c1ccc(-[n+]2nc(-c3ccccc3)nn2-c2ccccc2)cc1`, the Potency was inconclusive: 14.1 µM [quencher, side channel, partial curve].
In the case of `COC(=O)c1cn(NC(=O)/C=C/c2cc(OC)ccc2OC)c(=O)c2ccccc12`, the “activity change, negative = inhibition” value is reported as inactive: 9.72%.
For `COc1ccc(CCNC(=O)CNS(=O)(=O)c2ccc(N(C)C)c([N+](=O)[O-])c2)cc1OC`, the Potency was inconclusive: 17.8 µM [quencher, side channel, partial curve].
In the case of `O=C(Cc1ccccc1)Nc1c(Cl)ccc2nsnc12`, the Potency is reported as inconclusive: 7.94 µM [quencher, side channel, full curve].
With `COC(=O)c1cc(C(=O)NC(C)C2CC3CCC2C3)cc([N+](=O)[O-])c1` (centres undefined) the Potency was inconclusive: 17.8 µM [quencher, side channel, partial curve].
`CCOC(=O)CN1C(=O)CN(c2ccc(C)cc2)C1=O` was tested, and the Potency was inconclusive: 25.1 µM [fluorescent, side channel, partial curve].
In the case of `O=c1cc(-c2ccccc2Cl)oc2c(NS(=O)(=O)c3cc(Cl)cc(Cl)c3O)ccc(O)c12`, the Potency is reported as inconclusive: 79.4 µM [inhibitor, single point].
With `CSc1ccccc1NC(=O)C1=CC(c2cccs2)=NS(=O)(=O)N1C` the Potency was inconclusive: 12.6 µM [quencher, side channel, partial curve].
For `CCN1CCCC1CN(Cc1cc2ccc(C)cc2[nH]c1=O)C(=S)Nc1ccc(OC)cc1` (centres undefined), the “activity change, negative = inhibition” value was inactive: 1.83%.
`COc1ccc(/C=N/NC(=O)c2ccc(Cn3cc([N+](=O)[O-])cn3)o2)cc1O` was tested, and the Potency was inconclusive: 12.6 µM [quencher, side channel, partial curve].
For `Cc1ccccc1C(=O)NC1CCN(Cc2nnnn2C2CCCC2)CC1`, the “activity change, negative = inhibition” value was inactive: -3.59%.
In the case of `Cc1ccccc1-n1ncc2c([N+](=O)[O-])cc([N+](=O)[O-])cc21`, the Potency is reported as inconclusive: 3.55 µM [quencher, side channel, partial curve].
In the case of `CCc1ccc(NC(=O)C2=CC(c3ccc(OC)c(OC)c3)=NS(=O)(=O)N2C)cc1`, the Potency is reported as inconclusive: 15.8 µM [quencher, side channel, partial curve, poor fit].
`O=C(CCS(=O)(=O)c1ccccc1)OCc1ccc([N+](=O)[O-])cc1` was tested, and the Potency was inconclusive: 17.8 µM [quencher, side channel, partial curve].
With `O=C(Nc1ccccn1)c1ccc(Cl)c([N+](=O)[O-])c1` the Potency was inconclusive: 6.31 µM [quencher, side channel, partial curve].
For `O=C1CCC/C1=c1\s/c(=C\c2cccnc2)c(=O)n1-c1ccccc1`, the Potency was inconclusive: 3.55 µM [quencher, side channel, full curve, poor fit].
With `CCN1CCc2nc3sc(C(=O)N4CCc5ccccc5C4)c(N)c3cc2C1` the Potency was inconclusive: 12.6 µM [quencher, side channel, partial curve].
`Cc1cc(NC(=O)c2ccc([N+](=O)[O-])cc2Cl)no1` was tested, and the Potency was inconclusive: 12.6 µM [quencher, side channel, partial curve].
With `COc1ccc(-c2cc(-c3nnc(COC(=O)C4CC4)o3)c3ccccc3n2)cc1OC` the Potency was inconclusive: 14.1 µM [quencher, side channel, partial curve].
`CCOc1ccc(-c2c(=O)n(OCc3nc4ccccc4[nH]3)c3ccccc3[n+]2[O-])cc1` was tested, and the Potency was inconclusive: 7.08 µM [quencher, side channel, partial curve].
In the case of `COc1cccc(N2CCc3c(C)nc4ccc(Cl)cc4c32)c1`, the Potency is reported as inconclusive: 17.8 µM [quencher, partial curve].
With `O=c1[nH]c2cccnc2n1-c1cccc([N+](=O)[O-])c1` the Potency was inconclusive: 14.1 µM [quencher, side channel, partial curve].
`Cc1ccc(NC(=O)c2nn(C34CC5CC(CC(C5)C3)C4)cc2[N+](=O)[O-])cc1` was tested, and the Potency was inconclusive: 12.6 µM [quencher, side channel, partial curve].
For `CC(=O)c1sc2nc(C)cc(C)c2c1N`, the Potency was inconclusive: 12.6 µM [quencher, partial curve].
For `Cc1cc(N=NC(=O)c2ccccc2O)c2ccccc2c1O`, the Potency was inconclusive: 1.58 µM [quencher, side channel, full curve].
With `COc1ccc(C2C3(C#N)C(N)=NC(OC)(OC)C23C#N)cc1` (centres undefined) the Potency was inconclusive: 15.8 µM [quencher, side channel, single point].
For `COc1cccc(CN2CCN(Cc3cccc4nonc34)CC2CCO)c1` (centres undefined), the “activity change, negative = inhibition” value was inactive: 4.72%.
In the case of `O=C1C(Cl)=C(Nc2ccc3cn[nH]c3c2)C(=O)c2ccccc21`, the Potency is reported as inconclusive: 14.1 µM [quencher, side channel, partial curve].
With `O=C(/C=C\Nc1ccc2c(c1)OCO2)c1cccs1` the Potency was inconclusive: 12.6 µM [quencher, side channel, partial curve].
`Cc1ccc(S(=O)(=O)Nc2ccc3c(c2)C(=O)NC3=O)cc1[N+](=O)[O-]` was tested, and the Potency was inconclusive: 20 µM [quencher, side channel, partial curve].
With `Cc1nnc(N/N=C/c2ccccc2F)n1N` the “activity change, negative = inhibition” value was inactive: 6.28%.
For `CNC(=O)NC(=O)CSc1nc(-c2cccs2)c(C#N)c(=O)[nH]1`, the Potency was inconclusive: 17.8 µM [fluorescent, side channel, partial curve].
With `C=CCNC(=O)c1ccc(-c2ccc([N+](=O)[O-])cc2)o1` the Potency was inconclusive: 5.62 µM [quencher, side channel, partial curve].
For `CCOc1cc(-c2conc2N)cc(OCC)c1OCC`, the Potency was inconclusive: 20 µM [fluorescent, side channel, partial curve, poor fit].
With `CCOC(=O)c1cc2c(=O)n3cccc(C)c3nc2n(Cc2ccco2)c1=NC(=O)c1cccnc1` the Potency was inconclusive: 12.6 µM [quencher, side channel, partial curve].
`COc1cccc(-n2c(SCC(N)=O)nnc2-c2ccco2)c1` was tested, and the Potency was inconclusive: 6.31 µM [fluorescent, side channel, single point].
In the case of `CCOC(=O)c1c(-c2ccc(OC)cc2)csc1/N=C/N(C)C`, the Potency is reported as inconclusive: 39.8 µM [quencher, side channel, single point].
In the case of `CCN(CC)c1ccc(/C=N/NC(=O)Nc2ccccc2)cc1`, the “activity change, negative = inhibition” value is reported as inactive: 19.9%.
With `O=[N+]([O-])c1ccc(F)c(N=Cc2ccc(Br)s2)c1` the Potency was inconclusive: 31.6 µM [quencher, side channel, partial curve].
`NC(=O)[C@@H]1CCCNc2c(F)cc([N+](=O)[O-])cc2C(=O)N[C@@H](CO)C(=O)NCC(=O)N1` was tested, and the Potency was inconclusive: 14.1 µM [quencher, partial curve].
With `Cc1cc(OC(F)F)ccc1NC(=S)NCCc1ccccc1` the “activity change, negative = inhibition” value was inactive: 5.3%.
With `O=C1/C(=C/c2cccs2)Sc2ccccc21` the “activity change, negative = inhibition” value was inactive: 33.6%.
With `CC(C)c1ccc(N2C(=O)[C@@H]3Cc4ccccc4CN3C2=O)cc1` the “activity change, negative = inhibition” value was inactive: -7.9%.
With `CCN(CC)S(=O)(=O)c1ccc(C(=O)N2CCc3ccccc32)cc1` the “activity change, negative = inhibition” value was inactive: -6.54%.
For `Cc1cccc(NC(=S)Nc2cccc3ccccc23)c1`, the Potency was inconclusive: 15.8 µM [quencher, side channel, partial curve].
For `O=C(CNc1cccc([N+](=O)[O-])c1)N/N=C/c1ccc([N+](=O)[O-])o1`, the Potency was inconclusive: 2.82 µM [quencher, side channel, full curve].
For `O=Cc1ccc(-n2nncc2-c2ccc([N+](=O)[O-])cc2)cc1`, the Potency was inconclusive: 11.2 µM [quencher, partial curve].
`C[C@@H]1NC(=O)[C@H](CCCN=C(N)N)NC(=O)c2cc([N+](=O)[O-])cc(I)c2NCCC[C@@H](C(N)=O)NC1=O` was tested, and the Potency was inconclusive: 15.8 µM [quencher, side channel, partial curve].
With `C=CCNC1=C(Cl)C(=O)N(c2cccc(Cl)c2Cl)C1=O` the Potency was inconclusive: 20 µM [quencher, side channel, single point].
With `CC(=O)Nc1ccc(S(=O)(=O)N(C)c2nc3ccccc3nc2Cl)cc1` the Potency was inconclusive: 31.6 µM [quencher, single point].
For `COc1ccc(NC(=O)CN2CCCCC2)c([N+](=O)[O-])c1`, the Potency was inconclusive: 17.8 µM [quencher, side channel, partial curve, poor fit].
